# Measured values as given in PubChem BioAssay AID1768 (National Center for Advancing Translational Sciences (NCATS), 2009).
# The campaign covered roughly 270,000 compounds. About 620 (0.23%) were called active. Inconclusive means that the source gave no clear call. Such entries were picked first, then a sample of the others. Calls come from the whole dose curve; as a rule, active = well fitted inhibition curve with a large enough effect in the polarisation, with a control signal flat (not every such curve was filed as active); inconclusive = small, poorly fitted or top-dose-only effect, or effect the other way, or a change in a side signal; inactive = no such curve, though single readings can be large or run the other way; the % refers to the polarisation. Where the call is inconclusive, the potency comes from a doubtful curve fit. A note “side channel” means that the fit belongs to a control or component signal, not to the main read-out.
# Target: Menin (Homo sapiens) (UniProt O00255)
# Sequence of UniProt O00255 (O00255 whole entry, looked up): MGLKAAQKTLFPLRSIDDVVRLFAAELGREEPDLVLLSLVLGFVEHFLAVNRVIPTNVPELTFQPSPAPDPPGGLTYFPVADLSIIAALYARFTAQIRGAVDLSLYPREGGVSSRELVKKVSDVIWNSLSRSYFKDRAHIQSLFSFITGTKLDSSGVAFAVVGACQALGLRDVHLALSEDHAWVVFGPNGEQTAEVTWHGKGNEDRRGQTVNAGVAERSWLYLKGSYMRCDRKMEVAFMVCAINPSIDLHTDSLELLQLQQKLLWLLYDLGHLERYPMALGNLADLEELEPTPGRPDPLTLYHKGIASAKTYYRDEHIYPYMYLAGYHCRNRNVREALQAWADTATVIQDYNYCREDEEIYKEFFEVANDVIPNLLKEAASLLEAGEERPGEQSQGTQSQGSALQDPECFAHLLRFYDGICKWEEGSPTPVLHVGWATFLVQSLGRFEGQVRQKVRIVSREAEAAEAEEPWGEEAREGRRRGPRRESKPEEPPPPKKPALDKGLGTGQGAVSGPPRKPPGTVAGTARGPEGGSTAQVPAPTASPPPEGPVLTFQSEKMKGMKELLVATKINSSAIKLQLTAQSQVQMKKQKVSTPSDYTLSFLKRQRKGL
# Test: qHTS Assay for Inhibitors Targeting the Menin-MLL Interaction in MLL Related Leukemias: Competition With Texas Red Labeled MLL-derived Mutant Peptide
# Details: fluorescence polarization; series mostly up to 61.6 µM
# From the text: qHTS Assay for Inhibitors Targeting the Menin-MLL Interaction in MLL Related Leukemias NIH Chemical Genomics Center [NCGC] NIH Molecular Libraries Probe Centers Network [MLPCN] MLPCN Grant: MH084875-01A1 Assay Submitter (PI): Jolanta Grembecka, Tomasz Cierpicki, University of Virginia Translocations of the MLL (Mixed Lineage Leukemia) gene are frequently found in human leukemias affecting both children and adults. Fusion of MLL to one of more than 60 genes results in generation of oncogenic proteins upregulating Hox genes, which are vital to blood cell development. Patients harboring fusion of the MLL gene suffer from aggressive leukemias and respond poorly to available therapies. All of the oncogenic fusion proteins have a preserved N-terminal fragment of MLL that has been identified to interact with menin. It has been recently discovered that association with menin is critical to the leukemogenic activity of the MLL fusion oncoproteins. Selective targeting of the menin-MLL interaction could provide an attractive therapeutic approach to develop novel drugs for MLL-related leukemias. Small molecules blocking the menin-MLL interaction should reverse the oncogenic potential of MLL fusion proteins. We have developed and optimized a fluorescence polarization-based assay for the identification of Menin-MLL inhibitors. The assay was run employing two different MLL-derived peptides. The present assay uses a 12 amino acid peptide labeled with fluorescein at its N-terminus. This peptide consists of the menin high affinity binding motif from MLL and is potently bound by menin. Another peptide with a mutated sequence, labeled with Texas Red, was used in parallel as a less stringent screen for inhibitors.
# The Menin protein, the MLL-wild type (w.t.) derived peptide (N-terminal 12 amino acids), the MLL-derived peptide labeled with Texas Red and the MLL-w.t. peptide labeled with Fluorescein were kindly supplied by laboratory of Dr. Jolanta Grembecka, University of Virginia. All protein and peptide solutions were stored in single use aliquots at -80C. The Eu3+ Cyrptate-conjugated mouse monoclonal antibody anti-6 Histidine (Eu3+-AB) and the Streptavidin-XL665 conjugate (XL665) were purchased from Cisbio International (Bedford, MA). All antibody and XL665 conjugate solution stocks were stored in single use aliquots at -20C. The Buffer components for all assays were purchased from Sigma-Aldrich (St. Louis, MO) and Invitrogen (Carlsbad, CA). FP Assay Reagents: 1. FP reaction buffer: 50 mM Tris-HCl pH 7.5, 50 mM NaCl, 1mM DTT. Before use, 0.05% BSA is added. 2. Menin protein, MLL-w.t. labeled with fluorescein, MLL-mutant peptide labeled with texas red. Stored in singe use aliquots at -80C. 3. MLL-w.t. unlabeled peptide as positive control: 10 uM final in FP buffer. FP Assay Procedure: 1. Prepare Menin at 200 nM, MLL-w.t.-fluorescein at 25 nM, and MLL-mutant-texas red at 50 nM mixture in FP buffer. 2. Prepare Menin at 200 nM, MLL-w.t.-fluorescein at 25 nM, MLL-mutant-texas red at 50 nM, and 10 uM MLL-w.t. unlabeled mixture in FP buffer. 3. Prepare MLL-w.t.-fluorescein at 25 nM and MLL-mutant-texas red at 50 nM mixture in FP buffer. 3. Dispense 4 ul per well of reagent in step 1 in columns 2, 4 - 48 in a black 1536 well plate, dispense 4 ul per well of reagents from steps 2 and 3 in columns 1 and 3 respectively. Incubate plate at ambient for 15 minutes. 4. Transfer 23 nl per well of compound to plate and incubate at ambient for 1 hr. 5. Read fluorescence polarization for each label using the PerkinElmer Envision. Envision protocol for fluorescein: FITC FP Dual Enh Mirror, Excitation filter 480, Emission filter (1) P-pol 535, Emission filter (2) S-pol 535 Envision protocol for texas red: FP Dual Enh Mirror, Excitation filter 555, Emission filter (1) P-pol 632, Emission filter (2) S-pol 632
# Potency is the fitted concentration of half-maximal effect; tags give direction and shape of the fitted curve or compound fluorescence and quenching.
row,SMILES,Potency
1,COc1cccc(CC2(CO)CCCN(Cc3ccc(OC)c(C)c3OC)C2)c1 (configuration not stated),"inconclusive: 44.7 µM [inhibitor, partial curve, poor fit]"
2,CC[n+]1ccc(/C=C/c2ccc(N(C)C)cc2)c2ccccc21,"inconclusive: 2.51 µM [fluorescent, side channel, full curve]"
3,O=C(Nc1ccc([N+](=O)[O-])cc1)/C(=C/c1cccc([N+](=O)[O-])c1)NC(=O)C1CCCCC1,"inconclusive: 11.2 µM [quencher, partial curve]"
4,CCC(CC)=NNc1cccc([N+](=O)[O-])c1,inactive
5,COc1ccc(NC2=NC3(CCCCC3)N=C(N)N2)cc1,inactive
6,Cc1ccc(/C=C/C(=O)Nc2ccccc2C(N)=O)cc1,"inconclusive: 12.6 µM [quencher, side channel, partial curve]"
7,COc1ccc2[nH]c3c(N4CCN(Cc5ccc6c(c5)OCO6)CC4)ncnc3c2c1,inactive
8,CC(=O)c1cccc(OCC(O)CNCCc2ccc(Cl)cc2)c1 (configuration not stated),"inconclusive: 31.6 µM [inhibitor, partial curve]"
9,Cc1noc(C)c1CSc1nnc(-c2c[nH]c3ccccc23)n1-c1ccc(Cl)cc1,"inconclusive: 31.6 µM [fluorescent, side channel, single point]"
10,Cc1nn(C)c(C)c1CN(C)C(=O)C1c2ccccc2Oc2ccccc21,inactive
11,CCCCn1c(=O)c(CCC(=O)OCC(=O)NCc2ccc(OC)c(OC)c2)nc2ccccc21,"inconclusive: 28.2 µM [inhibitor, partial curve]"
12,O=C(COc1cccc(NC(=O)c2cccs2)c1)c1ccc(F)cc1,"inconclusive: 22.4 µM [quencher, side channel, partial curve]"
13,O=C1OCCN1C(=O)[C@H]1[C@H](c2ccc([N+](=O)[O-])cc2)C(c2ccc(F)cc2)=NN1c1ccc(Br)cc1,"inconclusive: 2.24 µM [quencher, side channel, full curve]"
14,Cc1ccc(-n2ncc3c(SCc4ccccn4)ncnc32)c(C)c1,"inconclusive: 10 µM [fluorescent, side channel, partial curve]"
15,COc1cccc(-c2c(C(=O)N/N=C/c3ccc(C)s3)nnn2-c2nonc2N)c1,"inconclusive: 10 µM [quencher, side channel, single point]"
16,CCCn1c(C)cc(C(=O)COc2ccc(-c3nnco3)cc2)c1C,"inconclusive: 15.8 µM [fluorescent, side channel, partial curve]"
17,CC(C)(C)C(=O)Nc1ccc(C(=O)N/N=C/c2ccccc2OC(=O)c2ccc(Cl)cc2Cl)cc1,"inconclusive: 4.47 µM [inhibitor, single point]"
